# Results published in paper PMC12136788.
# The other results are listed elsewhere or left out.
# B1: chr11:87044885:87044886:-_ENSMUSG00000046442_ENSMUST00000055438|mus_hu|FALSE|FALSE (ssRNA)
# RNA: GGGAGUUCUACAGUCCGACGAUCAGGACCAAACAUCUCAACUGGUAGCAAAAACUGGGCACUGUGAGGUUUGCUUGCUUCUAUUUGUGUGAGAUCUAGGUAGCCUGGGUCUUCCAGCACGUUGAUUUGGGACCCUGGGCUCAGCAACAGAGGAUUGAGCAUCA
# B2: 173316423_173316543_141_3pUTR_ENSG00000113742_ENST00000334035|human|control|control (ssRNA)
# RNA: GGGAGUUCUACAGUCCGACGAUCACUCUUAAAAAAAUCUCUUAAAACAUUGACUUGGAUCCAAUUGGGCUUAUUUUUAGGAGGGAAUAAAAAUGAAGAGGGUAAAAAUCAAGUCUUUGGUUAGUAAAAUAGGCGCUUUCUUUUCAACAGAGGAUUGAGCAUCA
# B3: 234758418_234761243_333_CDS_ENSG00000123485_ENST00000411486|human|control|control (ssRNA)
# RNA: GGGAGUUCUACAGUCCGACGAUCGACUGUGCGGUGCGAGGGAAGCUCAGGACCCCAGGCUGCAGCUUGCACGGAGCCAUCUGUCCUGUCCGCGGGCUUCAUGGAGGAGUCCUGGAUCUCUCCUUCGUUUCUUUCCUUUAUUAGCAACAGAGGAUUGAGCAUCA
# B4: chr7:151048522:151048523:+_ENSG00000013374_ENST00000566856|hu_mus|hu_hu_hu_mus_True|38_58 (ssRNA)
# RNA: GGGAGUUCUACAGUCCGACGAUCCUGUUUCUUAUUUAUUACGAUCUUGAUGUAAUUUUCUUGAAAUCCGAAAGUUUCAGCUAUUUUACACCUCAGGUCUCUGCCAGUGACAUGCAAGCGGGUCUCCAACAAGCUUUUCUUAUCCAACAGAGGAUUGAGCAUCA
# B5: chr13:31722556:31722557:-_ENSG00000120694_ENST00000320027|perfect_dup|FALSE|FALSE (ssRNA)
# RNA: GGGAGUUCUACAGUCCGACGAUCCUCGUGCACACCUUCCGUUUCUUCCGAGUCGUGGUUCCAGACCAGAGAUAUUGGAAAAGGAACUGCAUCGGUGACAGAGAACUCUCUAACUUUAAAUGCCGGAGAAAGAAUUGCACACUGCAACAGAGGAUUGAGCAUCA
# B6: chr7:54823571:54823572:-_ENSG00000132432_ENST00000352861|hu_mus|hu_hu_hu_mus_False|48_108 (ssRNA)
# RNA: GGGAGUUCUACAGUCCGACGAUCUCCCAUUAUAGCAAAUCCUAUAGCUGUAGCCAUGGCAAUCUUCUGGAAUUCUUUUCUGUCGGGUUUAGUGCAUCUUUUAACCAGCCGAAUUGAGUCCUUUACAAACUGCCGGCUGGGCUCCAACAGAGGAUUGAGCAUCA
# B7: chr7:141441981:141441982:+_ENSG00000106028_ENST00000265304|hu_mus|hu_hu_hu_mus_False|1_58 (ssRNA)
# RNA: GGGAGUUCUACAGUCCGACGAUCCUCAUGUCUUACAAACUGACGAAAUACCUGUAACACAGGUCUUCGAAACAUGGCUUCUAUUUUUCUUACAACCUAAUCUUUAGGCUUUUCCUAAAGGAAAGAAAGAAAAGAGAAGCCCAGCAACAGAGGAUUGAGCAUCA
# B8: 52803601_52810448_4060_CDS_ENSG00000157077_ENST00000287727|human|control|control (ssRNA)
# RNA: GGGAGUUCUACAGUCCGACGAUCGAAAAACACCUCUGUCCAUCUGAUUACUUUUCCAUUUGCUUUAUAUUCUGAUCCAUGGAAUAUCUUCACAUUUGUUAUAGUCUCCAUGGACUUCCCAUCUAUAGGACUUACGACACCCUUCAACAGAGGAUUGAGCAUCA
# B9: chr5:71593506:71593507:-_ENSG00000113048_ENST00000457646|hu_hu|FALSE|FALSE (ssRNA)
# RNA: GGGAGUUCUACAGUCCGACGAUCGAUCUAUCUCUUCCCGAGAGGAAAUGUUGUCUAUAAGCCGUGAUAUUGUUAAAGAACUAACAGGCAACUUUCUCUCAAAUGUUUUAUCCAUUAAAGAUGCAAGAUCAGCAAGACAGUAAUCAACAGAGGAUUGAGCAUCA
# B10: chr4:115894766:115894767:+_ENSMUSG00000028698_ENSMUST00000030464|mus_hu|mus_mus_mus_hu_True|58_78 (ssRNA)
# RNA: GGGAGUUCUACAGUCCGACGAUCUUCCACACGGAAAUGUACUUCGGGUUUUCCAACGCCAGUACAAAGUCCGGCCAACUACUAGGAACAGGGUCCUCCCCCUCUCUCCUACAGAACACAACAAAAUGCCCCCGAACUUUCAAGCAACAGAGGAUUGAGCAUCA
# B11: chr5:34943985:34943986:+_ENSMUSG00000029106_ENSMUST00000114338|mus_mus|motif|central (ssRNA)
# RNA: GGGAGUUCUACAGUCCGACGAUCGUGGUUGGAGGUGGUGAGGUCACCACUGCGGCCCGAGUGUCACCAUUCAUUGCACAAUUUUCCGGGGGUCCUCCGCGGAGAAUCGGGGAGAGAGCACGGCUUCCCGGGUCCGAGUGCGGCCAACAGAGGAUUGAGCAUCA
# B12: chr10:93459826:93459827:-_ENSMUSG00000036099_ENSMUST00000119818|mus_hu|FALSE|FALSE (ssRNA)
# RNA: GGGAGUUCUACAGUCCGACGAUCUCCCCAUACCAGCCAGGAAGACACAAUCCACCAAGUGGGAAGCAUAACGAGCAAGCUAAUGAAGGCAAAUAGCAUUGAGAGAUCCCAAAUAUUAGGGGUUGCCAGGGAGCAAAGUGUUGGCAACAGAGGAUUGAGCAUCA
# B13: chr16:46836887:46836888:-_ENSG00000155330_ENST00000285697|hu_hu|motif|central (ssRNA)
# RNA: GGGAGUUCUACAGUCCGACGAUCUUCAGCAGAUUUUGCAAACAAGUAUCAGAGAAUAAGUCUUUGAUUGAUAAUUUUUCGGUUUAUUUCUGCCAAGGCGACUGAAAACACGAAAGCCUUUUCAUCAGACAGGUUAGCAUAGAUCAACAGAGGAUUGAGCAUCA
# B14: chr3:25648697:25648698:-_ENSG00000077097_ENST00000264331|hu_mus|FALSE|FALSE (ssRNA)
# RNA: GGGAGUUCUACAGUCCGACGAUCUUUGUCAUUUGAAGAUUUUUCUGGAGUAGCUUUGGAUUUGCCUGAAGAAAAAGCAUACUCAUCUUUAUCUAAGCCAUCUGAAGGAACAAAUUCAUCUUCCCCAUCAUUUGUUAUGGGAGACAACAGAGGAUUGAGCAUCA
# B15: 110845328_110845448_7506_3pUTR_ENSMUSG00000021700_ENSMUST00000167824|mouse|control|control (ssRNA)
# RNA: GGGAGUUCUACAGUCCGACGAUCUCAGCGACCACGUGACAACAAGUGAAGCCUUUAACUAUCCUCUUAAACUAUUAUUCUGUGGUCAGCUACCUGCUUCUGCUUUUAUUUCCCUUCUAAUUUGGCACUAAGUCUUUGCUAUCUCAACAGAGGAUUGAGCAUCA
# B16: 48584822_48591857_1498_CDS_ENSG00000141646_ENST00000342988|human|control|control (ssRNA)
# RNA: GGGAGUUCUACAGUCCGACGAUCCUUAAAUGUCUCUCCUACCUGAACAUCCAUUUCAAAGUAAGCAAUGGAACACCAAUACUCAGGAGCAGGAUGAUUGGAAAUGGGAGGCUGGAAUGCAAGCUCAUUGUGAACAGGCCAGUACAACAGAGGAUUGAGCAUCA
# B17: chr2:230636304:230636305:-_ENSG00000153827_ENST00000389045|hu_hu|FALSE|FALSE (ssRNA)
# RNA: GGGAGUUCUACAGUCCGACGAUCGUACUGAAGAUGACUGAGUGGGAAGACUGAUUCAAAUCCAUCUCUGAACGAAUCAAAUUGCCUAGAAACGCCUUCAUUUAGUGCCCAGAAUAUAACCAGUCUUAGAUACUCCUCUAAAUUCAACAGAGGAUUGAGCAUCA
# B18: chr4:95690885:95690886:+_ENSMUSG00000028572_ENSMUST00000156910|mus_mus|mus_mus_mus_hu_False|1_88 (ssRNA)
# RNA: GGGAGUUCUACAGUCCGACGAUCUUUAGAAAAUGUUAAAUACCAUGAGCAUGCUAAUUCAAAGGCUUAUUUUAUUUUACCAGAAGUCACAGGCAAGCAGACACUACAAGAAUAUAUGAAAAUGAAACUCAACAAUAAAAUGUACAACAGAGGAUUGAGCAUCA
# B19: 27607926_27608704_485_CDS_ENSG00000115241_ENST00000350803|human|control|control (ssRNA)
# RNA: GGGAGUUCUACAGUCCGACGAUCAUGCAGCAGUGCAGCCUCCUCAUUGUCCACAUCAUCUUCAUCAGCUACUUUUUCUUUUUCAUCUUCAUCCUCAGUGGGUCGCCCUGCAAUCUGUGCCAGCUCUUUAAUGACUUCUUCAGUCAACAGAGGAUUGAGCAUCA
# B20: chr18:43482012:43482013:-_ENSMUSG00000024501_ENSMUST00000121805|mus_hu|FALSE|FALSE (ssRNA)
# RNA: GGGAGUUCUACAGUCCGACGAUCUCUGAAAGACCCCCACAUCUUUGAAGUGUAAACUAAGAGCUACAUUUUCCCUUUUACUACAUCUCCCUUAAAAGAAAAGCACUACAAGAGCUUUAAAAUAGCAAGCUUCCCUAUUCUAAGCAACAGAGGAUUGAGCAUCA
# B21: chr5:145543945:145543946:-_ENSG00000133706_ENST00000545646|hu_hu|hu_hu_hu_mus_True|38_68 (ssRNA)
# RNA: GGGAGUUCUACAGUCCGACGAUCCUGAACGGCCAGUGGUGGGAAAUAAUCAAGCCAGUGCUCUGCUUCAGAAAAUUUCACUAUGUCGUCAUCAGAGAGGCCAAGGGAUUUCAUAAUGUCCCACUGGUACUUAGAAGAUCCUGCCAACAGAGGAUUGAGCAUCA
# B22: 173376590_173377072_1939_CDS_ENSG00000113742_ENST00000334035|human|control|control (ssRNA)
# RNA: GGGAGUUCUACAGUCCGACGAUCCUUGAUAGUGGGACUUGAUACACAAAGGUAGAGUUUUCCAUCUUCUUCAAUGCAUGCAUCAAUGAGAGCCUGCACAGAGCUUUCAUCUUGAAACAGCAGGAAUGCAUAGCCUUUAGGAGGCAACAGAGGAUUGAGCAUCA
# Target: T1, UNK ZnF1-3 (human, UniProt Q9C0B0 31-174)
# T1 sequence: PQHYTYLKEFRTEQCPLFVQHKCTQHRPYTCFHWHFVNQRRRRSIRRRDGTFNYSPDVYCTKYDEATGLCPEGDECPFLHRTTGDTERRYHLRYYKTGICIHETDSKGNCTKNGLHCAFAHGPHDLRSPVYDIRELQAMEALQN
# Assay: nsRBNS (natural sequence RNA bind-n-seq); RBNS binding buffer (assumed for nsRBNS): 25 mM Tris pH 7.5, 150 mM KCl, 3 mM MgCl2, 0.01% Triton X-100, 500 ug/ml BSA, 20 U/ml SUPERase-In, 4 C; UNK is unkempt and MSI1 is Musashi-1; names of the RNAs are library labels; protein concentration not given here; high values mean tight binding
row,Binder,binding signal [enrichment R]
1,B1,1.01
2,B2,2.19
3,B3,0.379
4,B4,0.649
5,B5,1.13
6,B6,0.714
7,B7,0.396
8,B8,0.618
9,B9,0.888
10,B10,0.86
11,B11,1.38
12,B12,1.97
13,B13,0.741
14,B14,0.852
15,B15,0.627
16,B16,1.46
17,B17,0.98
18,B18,1.79
19,B19,0.631
20,B20,1.11
21,B21,1.17
22,B22,1.39
